# The whole screen tested about 370,000 compounds, of which about 150 (0.041%) were called active. The shares of active, inactive and inconclusive entries below differ from those in the screen. The call rests on the fitted dose curve; in most records, active means well fitted inhibition curve with a large enough effect; inconclusive means small, poorly fitted or top-dose-only effect; inactive means flat fitted curve, though single readings scatter. Potencies of inconclusive entries are left out as doubtful fits.
# Molecular target: Beta-lactamase (Escherichia coli (strain K12)) (UniProt P00811)
# Chain of UniProt P00811 (P00811 whole entry, looked up): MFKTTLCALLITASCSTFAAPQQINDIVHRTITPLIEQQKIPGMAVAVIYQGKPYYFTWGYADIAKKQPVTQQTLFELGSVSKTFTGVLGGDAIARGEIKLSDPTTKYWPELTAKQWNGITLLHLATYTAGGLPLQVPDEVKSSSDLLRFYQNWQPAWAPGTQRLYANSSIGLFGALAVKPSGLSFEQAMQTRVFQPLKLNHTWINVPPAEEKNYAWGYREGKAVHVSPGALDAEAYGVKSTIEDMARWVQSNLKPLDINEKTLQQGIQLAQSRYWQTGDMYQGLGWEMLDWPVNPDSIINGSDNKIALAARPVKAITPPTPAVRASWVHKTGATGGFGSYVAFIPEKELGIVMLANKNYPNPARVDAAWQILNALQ
# Test: qHTS Inhibitors of AmpC Beta-Lactamase (assay with detergent); further: nearly all actives have a fitted effect of over 25% in size;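 on activity change, negative = inhibition: 0% = no-compound wells and -100% = no-enzyme wells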
# Settings: AmpC hydrolysis of nitrocefin, absorbance 480 nm, 0.01% Triton; activity change, negative = inhibition: at 114 µM (top of the series)
# Procedure, shortened: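 AmpC (5.3 nM in the dispensed reagent) in 20 mM phosphate pH 7.0 with 0.01% (detergent screen) or 0.0001% Triton X-100 was preincubated with compounds for 15 min at room temperature. Nitrocefin was then added from an 800 uM solution, and hydrolysis was followed at 480 nm.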
# Potency means the concentration at half of the fitted maximal effect; tags describe the fitted curve by direction and shape.
Compound,Potency,"activity change, negative = inhibition"
Cc1ccc2c(c1)cc(CN(Cc1ccc3c(c1)OCO3)S(=O)(=O)c1ccccc1)c1nnnn12,"inconclusive [inhibitor, full curve, poor fit]",
COc1cccc(NC(=O)N2CCCCCC2)c1,"inconclusive [inhibitor, full curve, poor fit]",
O=C(NC(c1ccccc1)c1c(O)ccc2ccccc12)c1ccccc1Cl (stereo not drawn),,inactive: -2.21%
Oc1ccc(Br)cc1C=Nc1ccc2[nH]ncc2c1,"inconclusive [inhibitor, partial curve, poor fit]",
C=CCN1C(=O)/C(=C\c2cc(Br)c(OCc3ccccn3)c(OC)c2)SC1=S,"inconclusive [inhibitor, partial curve]",
O=C(CCc1ccccc1)Nc1ccc(NC(=O)c2ccco2)cc1,"inconclusive [inhibitor, partial curve, poor fit]",
Cc1cc(C)n(C(=O)c2cc3ccccc3c(=O)o2)n1,"inconclusive [inhibitor, single point]",
CCN(Cc1ccccc1)S(=O)(=O)c1ccc(F)cc1,"inconclusive [inhibitor, full curve, poor fit]",
CCn1c(SCC(=O)Nc2sccc2C(N)=O)nnc1C1CC1,"inconclusive [inhibitor, single point]",
CCOc1ccc(N(CC(=O)NCc2cccs2)S(=O)(=O)c2c(C)noc2C)cc1,,inactive: -14.4%
CC(C)COc1ccc(C(=O)N2CCC(c3nc4ccccc4s3)CC2)cc1,,inactive: 8.14%
COc1ccc(N2CCN(C(=O)CN3C(=O)NC(C)(c4ccc5ccccc5c4)C3=O)CC2)cc1 (stereo not drawn),"inconclusive [inhibitor, full curve, poor fit]",
Cc1nn(CC(C)C)c(Cl)c1C(=O)NC1CCC(C)CC1 (stereo not drawn),"inconclusive [inhibitor, full curve, poor fit]",
CC(=O)Nc1ccccc1OCCOc1ccc(Br)cc1,"inconclusive [inhibitor, partial curve, poor fit]",
O=C(Nc1nc(-c2ccc(S(=O)(=O)N3CCCCCC3)cc2)cs1)c1cccs1,"inconclusive [inhibitor, full curve, poor fit]",
CN(Cc1ccccc1)S(=O)(=O)c1csc(C(N)=O)c1,,inactive: -6.93%
CCC1CCc2sc(C(=O)NC3CCN(Cc4ccccc4)CC3)cc2C1 (stereo not drawn),"inconclusive [inhibitor, full curve, poor fit]",
O=C(Nc1cccc(NC(=O)c2cccc(F)c2)n1)c1cccc(F)c1,,inactive: -2.88%
CCOc1ncccc1C(=O)OCC(=O)Nc1ccc(-c2nc3ccc(C)cc3s2)cc1,"inconclusive [inhibitor, partial curve, poor fit]",
Cc1ccc(Cn2cccc2C2=NC(C)CO2)cc1 (stereo not drawn),"inconclusive [inhibitor, full curve, poor fit]",
O=S(=O)(NC1CCC(CNS(=O)(=O)c2c(F)cccc2F)CC1)c1ccc2c(c1)OCCO2 (stereo not drawn),"inconclusive [inhibitor, full curve, poor fit]",
COc1ccccc1NC(=O)CSC(N)=O,"inconclusive [inhibitor, full curve, poor fit]",
COc1ccc(C(C(=O)NC2CCCCC2)N(C(=O)Cc2c[nH]c3ccccc23)c2ccccc2)cc1OC (stereo not drawn),"inconclusive [inhibitor, full curve, poor fit]",

Compound,Potency,"activity change, negative = inhibition"
CC(Oc1ccc(Br)cc1)C(=O)Nc1nnc(C2CC2)s1 (stereo not drawn),"inconclusive [inhibitor, full curve, poor fit]",
Cc1c(C(=O)N2CCN(c3ccccc3)CC2)sc2ncnc(N3CCN(c4ccccn4)CC3)c12,,inactive: -1.33%
COC(=O)c1ccc(NC(=O)C(=O)N2CCCC2)cc1,,inactive: 1.85%
CCCCNC(=O)C1c2cc(OC)c(OC)cc2C(=O)N(C)C1c1cccs1 (stereo not drawn),"inconclusive [inhibitor, single point]",
O=C(Nc1cc2c(cc1Br)OCCCO2)c1ccccc1,"inconclusive [inhibitor, full curve]",
O=C(O)c1cc(=O)c2ccccc2[nH]1,,inactive: -0.951%
CC1=C(C(=O)Nc2cccc(C(F)(F)F)c2)C2(CCCCCC2)OC1=O,,inactive: -4.06%
Cc1ccc(C(=O)OCC(=O)Nc2cc(S(=O)(=O)N3CCOCC3)ccc2C)cc1,"inconclusive [inhibitor, partial curve]",
CC(=O)c1ccc(-c2cccc(-c3nc4ccccn4c3NC3CCCCC3)c2)cc1,"inconclusive [inhibitor, single point]",
CCn1c(SCc2nc3scc(-c4ccccc4)c3c(=O)[nH]2)nnc1-c1ccc(Cl)cc1,"inconclusive [inhibitor, full curve]",
CN(C(=O)Cn1cnc2ccccc2c1=O)C1CCS(=O)(=O)C1 (stereo not drawn),"inconclusive [inhibitor, single point]",
COc1ccccc1NC(=O)Cn1c(=O)n(-c2cccc(Cl)c2)c(=O)c2sc3ccccc3c21,,inactive: 0.0652%
Cc1ccc(S(=O)(=O)Cc2ccc(C(=O)N3CCN(c4ccccn4)CC3)o2)cc1,,inactive: -7.59%
CSCCC(NC(=O)COc1ccccc1)C(=O)N(C)Cc1ccc(F)cc1 (stereo not drawn),"inconclusive [inhibitor, full curve, poor fit]",
CCOc1cc(OCC)cc(C(=O)Nc2cccnc2)c1,"inconclusive [inhibitor, partial curve, poor fit]",
O=C(O)CC/C(=C\c1ccc(Cl)c([N+](=O)[O-])c1)c1nc2ccccc2s1,,inactive: 6.52%
CCN=C1SC(C(=O)Nc2cccc(OCC)c2)CC(=O)N1CC (stereo not drawn),"inconclusive [inhibitor, full curve]",
O=C1Cc2cc(S(=O)(=O)N3CCCCC3)cc3c2N1CCC3,,inactive: 3.99%
O=C(NCc1ccc(Cl)cc1)C(=O)NCC1OCCN1S(=O)(=O)c1cccs1 (stereo not drawn),"inconclusive [inhibitor, full curve, poor fit]",
O=C(COC(=O)Cc1ccsc1)NCC1CCCCC1,"inconclusive [inhibitor, partial curve, poor fit]",
O=C(OCC#CCSc1nc2ccccc2s1)c1ccco1,"inconclusive [inhibitor, full curve, poor fit]",
O=S(=O)(NCC1CCCO1)c1ccc(S(=O)(=O)N(Cc2ccccn2)C2CC2)cc1 (stereo not drawn),"inconclusive [inhibitor, full curve]",
CC(=O)c1cc(-c2ccccc2)n(CCC(=O)Nc2nc3c(C)cccc3s2)c1C,,inactive: -5.83%

Compound,Potency,"activity change, negative = inhibition"
Cc1ccc(CNC(=O)CCc2ccc(S(=O)(=O)NC3CCCCC3)cc2)cc1,,inactive: 7.14%
CCP(=O)(CC)c1cccc(N)c1,"inconclusive [inhibitor, partial curve, poor fit]",
CCc1ccc(C(=O)CN2C(=O)NC(C)(c3ccc(C)cc3)C2=O)cc1 (stereo not drawn),"inconclusive [inhibitor, partial curve]",
COC(=O)c1cc(OC)c(OC)cc1NC(=O)c1cccc(C)c1,,inactive: 5.06%
CCC1CCCCN1S(=O)(=O)c1ccc(NC(=O)CSc2ncccc2C(=O)O)cc1 (stereo not drawn),"inconclusive [inhibitor, full curve]",
CC(=O)c1nn(-c2ccc(C(F)(F)F)cc2)c(=O)[nH]c1=O,"inconclusive [inhibitor, partial curve]",
COc1ccc2c(c1OC)C(=O)N1N=C(c3ccc(F)cc3)CC21 (stereo not drawn),,inactive: 2.94%
O=C(NCCc1ccc(Cl)cc1)c1ccc(CS(=O)(=O)Cc2ccc(Cl)cc2)o1,,inactive: -1.24%
CCOC(=O)/C=C/S(=O)(=O)c1ccc(NC(C)=O)cc1,"inconclusive [inhibitor, full curve, poor fit]",
Cc1ccccc1NC(=O)Nc1nnc(Cc2ccc([N+](=O)[O-])cc2)s1,"inconclusive [inhibitor, partial curve]",
CCCCc1ccc(-c2ccc(Br)cc2)nc1,,inactive: -1.03%
O=C(c1ccco1)N1CCN(C(c2cccs2)c2sc3ncnn3c2O)CC1 (stereo not drawn),"inconclusive [inhibitor, partial curve, poor fit]",
Cc1ccccc1CN(C)CC(=O)Nc1ccccc1-c1ccccc1,,inactive: -8.58%
Cc1ccc(S(=O)(=O)N2CCN(C(=O)Cc3ccc4c(c3)OCCO4)CC2)cc1C,"inconclusive [inhibitor, full curve, poor fit]",
Cc1nc2ccccc2c2oc(C(=O)NCCCN3CC(C)CC(C)C3)cc12 (stereo not drawn),"inconclusive [inhibitor, full curve]",
Cc1ccc(NC2=CC(=O)CC(C)(C)C2)c(N)c1,"inconclusive [inhibitor, full curve, poor fit]",
CN(Cc1ccccc1F)C(=O)c1ccc(NS(=O)(=O)c2ccc3[nH]c(=O)[nH]c3c2)cc1,"inconclusive [inhibitor, full curve, poor fit]",
CCc1oc2ccccc2c1C(=O)CCN1CCCCC1,"inconclusive [inhibitor, partial curve]",
Cc1cccc(NC(=S)N(Cc2cccs2)Cc2cc3cc(C)ccc3[nH]c2=O)c1,"inconclusive [inhibitor, full curve, poor fit]",
Cc1noc(-c2ccc(-c3noc(-c4ccccc4)n3)cc2)n1,,inactive: -6.49%
Cc1ccc(C(=O)c2cn(Cc3c(F)cccc3Cl)c3nc(C)ccc3c2=O)cc1,,inactive: 2.38%
O=C(COC(=O)CCCN=C1NS(=O)(=O)c2ccccc21)NNC(=O)c1ccccc1,"inconclusive [inhibitor, full curve, poor fit]",
